In paper PMC4336329 (PLoS ONE, 2015):
In all, about 310,000 compounds went through this assay and about 2,200 (0.71%) showed an effect of 50% or more. Effects have a minus sign here. The list shows a part of the results.

Target: human ether-à-go-go-related gene (hERG) potassium channel (human, UniProt Q12809)
Experiment: primary screen, population patch clamp on CHO cells stably expressing hERG

human ether-à-go-go-related gene (hERG) potassium channel, sequence (Q12809 whole entry, looked up): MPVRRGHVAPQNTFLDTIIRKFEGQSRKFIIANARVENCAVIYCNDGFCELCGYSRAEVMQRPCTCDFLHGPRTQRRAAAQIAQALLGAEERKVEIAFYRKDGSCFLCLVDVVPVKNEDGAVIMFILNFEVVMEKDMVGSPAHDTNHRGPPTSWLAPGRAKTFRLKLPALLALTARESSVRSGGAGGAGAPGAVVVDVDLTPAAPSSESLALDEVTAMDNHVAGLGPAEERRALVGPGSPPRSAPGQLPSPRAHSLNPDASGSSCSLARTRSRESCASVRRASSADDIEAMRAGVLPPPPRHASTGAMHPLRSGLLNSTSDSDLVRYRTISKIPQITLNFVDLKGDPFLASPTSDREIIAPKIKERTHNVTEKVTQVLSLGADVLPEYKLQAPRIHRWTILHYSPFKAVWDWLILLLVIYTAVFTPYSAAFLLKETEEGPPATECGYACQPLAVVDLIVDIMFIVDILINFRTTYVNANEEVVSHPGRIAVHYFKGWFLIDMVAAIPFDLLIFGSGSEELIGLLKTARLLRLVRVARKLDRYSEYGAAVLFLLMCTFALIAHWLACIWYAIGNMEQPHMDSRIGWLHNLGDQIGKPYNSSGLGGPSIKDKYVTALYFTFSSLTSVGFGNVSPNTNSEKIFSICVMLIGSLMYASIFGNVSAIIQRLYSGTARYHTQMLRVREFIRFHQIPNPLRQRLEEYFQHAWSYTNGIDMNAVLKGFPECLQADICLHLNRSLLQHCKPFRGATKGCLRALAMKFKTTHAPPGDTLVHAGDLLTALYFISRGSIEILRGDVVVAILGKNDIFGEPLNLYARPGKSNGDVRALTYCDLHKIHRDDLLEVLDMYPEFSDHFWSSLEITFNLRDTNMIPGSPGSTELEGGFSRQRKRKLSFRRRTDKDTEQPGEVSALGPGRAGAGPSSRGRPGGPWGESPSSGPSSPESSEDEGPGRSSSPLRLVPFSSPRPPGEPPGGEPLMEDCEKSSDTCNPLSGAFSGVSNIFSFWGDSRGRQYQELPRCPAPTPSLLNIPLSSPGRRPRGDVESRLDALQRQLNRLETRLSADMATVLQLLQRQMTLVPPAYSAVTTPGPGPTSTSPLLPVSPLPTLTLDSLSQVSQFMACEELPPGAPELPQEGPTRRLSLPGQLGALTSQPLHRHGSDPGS

SMILES | hERG current change (%, negative = inhibition) at 1uM [%]
COc1ccc(S(=O)(=O)NCCc2ccccc2)cc1 | -4.73
COc1ccc(CCNC(=O)CN2CCN(Cc3ccccc3F)C2=O)cc1OC | 9.49
O=C(CNC(=O)c1ccccc1)OC1CCCCC1 | 2.83
S=C(NCc1ccco1)Nc1ccc(Cl)cc1 | 1.21
COc1ccc(N(C(=O)Cn2nnc(-c3ccc(C)o3)n2)C(C(=O)NC2CCCC2)c2ccncc2)cc1 (stereo not drawn) | 13.6
O=C(CNC(=O)c1ccc(N2C(=O)c3ccccc3C2=O)cc1)OCC(=O)c1cccc2ccccc12 | 2.88
Cc1cc(C)nc(/N=C2\NC(=O)CC(C(=O)O)N2c2ccc(F)c(Cl)c2)n1 (stereo not drawn) | 13.4
CC(C)OC(=O)CC(=O)CSc1nc2c(cc1C#N)CCCC2 | 10.4
CCCCc1n[nH]c2c1/C(=N/O)CC(C)(C)C2 | 6.67
CN(C)S(=O)(=O)c1cccc(NC(=O)COC(=O)c2cc3ccccc3oc2=O)c1 | 3.77
CCc1ccccc1NC(=O)CN(c1ccc(OC)cc1OC)S(=O)(=O)c1ccccc1 | 14.3
CCc1cccc(CC)c1NC(=O)/C(C#N)=C/c1ccccc1C(F)(F)F | 13.7
CCC(C)(C)NC(=O)C(c1ccc(F)cc1)N(Cc1ccco1)C(=O)c1cnccn1 (stereo not drawn) | 5.46
O=C(NCCNc1ccc(Cl)cc1[N+](=O)[O-])c1ccccc1F | 16.3
O=C(Cn1cnc2c(oc3ccccc32)c1=O)NCc1ccco1 | 6.01
Cc1cc(/C=C2/NC(=O)NC2=O)c(C)n1-c1sc2c(c1C#N)CCCC2 | 6.68
COc1ccc(NC(=O)/C(Cl)=C(/Cl)S(=O)Cc2ccccc2)cn1 (stereo not drawn) | 15.7
O=C(Nc1ccccc1F)NC1CC1 | 14.1
O=C1CCCCCN1Cc1ccccc1 | 5.9
CC(C)CC1(C(=O)NCc2cc(F)cc(C(F)(F)F)c2)C=CCN1C(=O)c1ccccc1 (stereo not drawn) | 16.4
CCOC(=O)c1sc(NC(=O)C2CC(=O)N(c3ccc(OCC)cc3)C2)nc1C (stereo not drawn) | 15.4
OCC1(Cc2cccc(Cl)c2)CCCN(Cc2sc(N3CCCC3)nc2Cl)C1 (stereo not drawn) | 9.46

SMILES | hERG current change (%, negative = inhibition) at 1uM [%]
COC(=O)[C@H](Cc1ccccc1)NC(=O)O[C@H]1C(=O)c2ccc(OC)cc2O[C@@H]1c1ccc2c(c1)OCO2 | 0.0735
Oc1ccc(-c2onc3ccc(Cl)cc23)cc1 | 0.54
COCc1cc(C)nc(SCC[N+](C)(C)CC(=O)Nc2cccc(C)c2)c1C#N.[Cl-] | 6.27
O=C1C=C(c2ccc(Oc3ccccc3)cc2)C[C@@H](c2ccc3c(c2)OCO3)C1 | 9.67
CCC(=O)Nc1ccc(C(=O)NNC(=O)c2ccccc2)cc1 | 0.95
CCOc1cc(CNc2ccc3c(c2)OCCO3)cc(Br)c1OCC | 1.03
C=CCC1(NCc2ccco2)CCN(CC)CC1.O=C(O)C(=O)O | -6.99
O=C(Cc1c(F)cccc1Cl)NCC1CCCO1 (stereo not drawn) | 9.07
O=C(NCc1ccccc1CN1CCCC1)c1cccc(S(=O)(=O)N2CCOCC2)c1 | -12.6
O=C(Nc1nnc(-c2ccccc2F)s1)c1cccnc1 | 7.76
Cc1ccc(-c2cc(C(=O)NCc3cnn(C)c3)c3cc(Br)ccc3n2)cc1 | 7.5
O=C(Oc1cccc2ccccc12)C1CC1 | 10.8
Cc1cc(C)nc(Nc2cccc(Cl)c2)n1.Cl | 13.5
Cc1cccc(COc2ccccc2C(=O)OCC(=O)N(C)c2c(N)n(Cc3ccccc3)c(=O)[nH]c2=O)c1 | 15.9
Cc1cc2ncn(C(=O)N3CCC(C)CC3)c2cc1C | 7.46
COc1cc(C(F)(F)F)c(C(=O)N(C)Cc2cc(Cl)cc(Cl)c2)cn1 | 4.99
COc1ccccc1OCCNC(=O)Nc1cc(F)c(F)cc1Cl | 14.5
CCc1ccc(CN(C)C(=O)CCc2nnc(CCc3ccccc3OC)o2)nc1 | 0.403
O=[N+]([O-])c1cccc(OCc2cn3cccnc3n2)c1 | 5.95
CCCCOC(=O)c1nnc(-c2ccc(Cl)cc2)o1 | 11.5
COc1ccc(C(=O)N2CC(c3ccccc3)CC2=O)cc1 (stereo not drawn) | 9.89
CCCN(C(=O)CSc1ncnc2sccc12)c1c(N)n(Cc2ccccc2)c(=O)[nH]c1=O | 3.78

SMILES | hERG current change (%, negative = inhibition) at 1uM [%]
COc1ccc(-c2nnc(N(C)C(=O)C3CCOC3)s2)cc1 (stereo not drawn) | 8.67
Cc1nc2scc(-c3ccc(C(C)C)cc3)c2c(=O)n1N | 20.6
O=C(CSc1ccc2nnc(-c3cccnc3)n2n1)Nc1ccccc1 | 5.35
CC(C)c1nc(CNC(=O)c2ccc(OC3CCN(Cc4ccccn4)CC3)cc2)cs1 | 4.67
CCc1ccc(C(=O)Cc2cc3cccc(OC)c3oc2=O)cc1 | 19.8
CCCCC(=O)Nc1cc(C(=O)NCCc2ccccc2)ccc1Cl | 3.68
O=C(NCc1nc(-c2ccccc2)no1)c1ccc2c(c1)OCO2 | 13
CCCCCn1c(=O)[nH]c2c(c1=O)CCC2 | 5.51
COc1ccc(CCNC(=O)CCN2C(=O)C3CC=CCC3C2=O)cc1OC (stereo not drawn) | 10
CCOc1ccc(/C=C2\C(=O)c3ccccc3OC2c2ccccc2)cc1 (stereo not drawn) | 12.8
O=C(Cn1nnc(-c2ccccc2NC(=O)c2ccco2)n1)Nc1ccccc1 | 15.7
C[C@H](NC(=O)[C@H](Cc1ccccc1)n1c(=O)[nH]c2ccccc2c1=O)C(=O)N1CCC(C(=O)O)CC1 | 7.12
C=CCN1C(=O)/C(=N/n2cnnc2)c2ccccc21 | 20.7
CCc1nnc(NC(=O)CCC(=O)NC2CCCc3ccccc32)s1 (stereo not drawn) | 2.6
O=C(c1ccc(Br)o1)N1CCC(Cc2ccccc2)CC1 | 16
COCCn1c(=O)sc2ccccc2c1=O | 11.6
COC(=O)[C@H](CC(C)C)NC(=O)N1CCC(C)CC1 | 10.5
C[N+]1(C)CCc2cc3c(cc2[C@H]1[C@@H]1OC(=O)c2c1ccc1c2OCO1)OCO3.[I-] | 16.5
Cc1nn(CC(=O)N2CCN(C34CC5CC(CC(C5)C3)C4)CC2)c(C)c1[N+](=O)[O-] | 8.78
CCOC(=O)c1c(NC(=O)c2ccc(S(=O)(=O)N3CCOCC3)cc2)sc2c1CCN(C(C)C)C2 | -3.06
CCOC(=O)/C=C1\SC(C)C(=O)N1CC(=O)N(CCC#N)c1ccccc1 (stereo not drawn) | 1.85
O=C(c1cc2cc(Cl)ccc2oc1=O)N1CCOCC1 | 3.97

SMILES | hERG current change (%, negative = inhibition) at 1uM [%]
COc1ccccc1C(=O)NNC(=O)c1ccc(Br)o1 | 11.8
Cl.NCCCC[C@H](NC(=O)C1CCNCC1)c1nnc([C@@H](N)Cc2ccc(O)cc2)o1 | 19.9
Cc1cccc(S(=O)(=O)NNC(=O)Cc2cccn2C)c1 | 15.7
N/C(=N\OC(=O)Cc1ccccc1)c1cccc(Br)c1 | 9.77
O=C(Nc1cccc2ncccc12)c1cccc(F)c1 | -1.16
CSC(=NC#N)N1CCN(c2ccccc2)CC1 | 6.71
O=C(COc1ccc(Cl)cc1Cl)Nc1ccc(C(=O)Nc2ccccc2C(=O)O)cc1 | 2.84
Cc1ccc(C)c(NC(=S)NNC(=O)c2csc3c2CCC(C)C3)c1 (stereo not drawn) | 5.44
Cc1ccc2nc(/C(C#N)=N/O)[nH]c2c1 | 14
C#CCOCCOCCOCCNc1nc(N2CCN(C(=O)[C@H](CCCC[NH3+])n3cc(CC(C)O)nn3)CC2)nc(N2CCN(C(=O)[C@H](CCCC[NH3+])n3cc(CC(C)O)nn3)CC2)n1.[Cl-] (stereo partly drawn) | 7.41
COc1ccc(Cl)cc1C(=O)NN=C1CCCC1 | 7.2
O=C(c1ccc2c(c1)OCCO2)N1CCN(c2ccc([N+](=O)[O-])cc2)CC1 | 1.16
CN(CC(=O)Nc1ccccc1Cl)C(=O)COC(=O)c1ccc(Cl)cc1[N+](=O)[O-] | -3.76
Cc1sc(NC(=O)c2ccco2)c(C(c2cccnc2)N2CCN(CCO)CC2)c1C (stereo not drawn) | -10.5
CC1(C)CC(=O)C2=C(C1)C(c1cn(-c3ccccc3)nc1-c1ccccc1)C(C#N)=C(N)O2 (stereo not drawn) | 11.7
Cc1nc(N2CCN(Cc3ccccc3)CC2)[nH]c(=O)c1C | -3.5
O=C(c1ccc(Cl)c(Cl)c1)N1CCOCC1 | 3.12
CC(C)(C)[C@H]1CCC(=O)N([C@H](CSc2ccc(Br)cc2)Cc2ccccc2)CC1 | 11.8
CC(=O)Nc1ccc(C2NC(=O)c3ccccc3O2)cc1 (stereo not drawn) | 0.0336
CCOc1cc(C2C(C(=O)OC)=CN(C3CCCC3)C=C2C(=O)OC)cc(Br)c1O | 11.2
O=P(c1ccccc1)(c1ccccc1)c1ccc(O)cc1 | 9.57
